Test results from the supplement of paper PMC8728848.
Some of the results follow.

Experiments:
Assay in all cases: glycan array binding signal (z-score within array); higher = stronger binding
Details in all cases: glycan notation: IUPAC condensed, linker removed
[1] = target: Gal(b1-3)GlcNAc(b1-2)Man(a1-3)[Gal(b1-3)GlcNAc(b1-2)Man(a1-6)]Man(b1-4)GlcNAc(b1-4)GlcNAc
In short: (§1)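 Arrays were curated from the Consortium for Functional Glycomics database, 3228 in total, and kept only where the protein sequence was available. Binding is expressed as a within-array Z-score. This score was averaged across arrays of the same protein sequence at different concentrations or buffers and across linkers, and negative values can be read as non-binding.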

[2] = target: Gal(b1-3)GlcNAc(b1-2)Man(a1-3)[Gal(b1-3)GlcNAc(b1-2)Man(a1-6)]Man(b1-4)GlcNAc(b1-4)[Fuc(a1-6)]GlcNAc
In short: as §1

[3] = target: Gal(b1-3)GlcNAc(b1-2)Man(a1-3)[GlcNAc(b1-4)][Gal(b1-3)GlcNAc(b1-2)Man(a1-6)]Man(b1-4)GlcNAc(b1-4)GlcNAc
In short: as §1

[4] = target: Gal(b1-3)GlcNAc(b1-2)[Gal(b1-3)GlcNAc(b1-6)]Man(a1-6)[Gal(b1-3)GlcNAc(b1-2)Man(a1-3)]Man(b1-4)GlcNAc(b1-4)GlcNAc
In short: as §1

[5] = target: Gal(b1-3)GlcNAc(b1-3)Gal(b1-3)GlcNAc
In short: as §1

[6] = target: Gal(b1-3)GlcNAc(b1-3)Gal(b1-4)Glc
In short: as §1

[7] = target: Gal(b1-3)GlcNAc(b1-3)Gal(b1-4)GlcNAc
In short: as §1

[8] = target: Gal(b1-3)GlcNAc(b1-3)Gal(b1-4)GlcNAc(b1-2)Man(a1-3)[Gal(b1-3)GlcNAc(b1-3)Gal(b1-4)GlcNAc(b1-2)Man(a1-6)]Man(b1-4)GlcNAc(b1-4)GlcNAc
In short: as §1

[9] = target: Gal(b1-3)GlcNAc(b1-3)Gal(b1-4)GlcNAc(b1-2)[Gal(b1-3)GlcNAc(b1-3)Gal(b1-4)GlcNAc(b1-6)]Man(a1-6)[Gal(b1-3)GlcNAc(b1-3)Gal(b1-4)GlcNAc(b1-2)Man(a1-3)]Man(b1-4)GlcNAc(b1-4)[Fuc(a1-6)]GlcNAc
In short: as §1

[10] = target: Gal(b1-3)GlcNAc(b1-3)Gal(b1-4)GlcNAc(b1-3)Gal(b1-4)GlcNAc(b1-2)[Gal(b1-3)GlcNAc(b1-3)Gal(b1-4)GlcNAc(b1-3)Gal(b1-4)GlcNAc(b1-6)]Man(a1-6)[Gal(b1-3)GlcNAc(b1-3)Gal(b1-4)GlcNAc(b1-3)Gal(b1-4)GlcNAc(b1-2)Man(a1-3)]Man(b1-4)GlcNAc(b1-4)[Fuc(a1-6)]GlcNAc
In short: as §1

[11] = target: Gal(b1-3)GlcNAc(b1-3)Gal(b1-4)GlcNAc(b1-6)[Gal(b1-3)GlcNAc(b1-3)]Gal(b1-4)Glc
In short: as §1

[12] = target: Gal(b1-3)GlcNAc(b1-3)Gal(b1-4)[Fuc(a1-3)]GlcNAc
In short: as §1

[13] = target: Gal(b1-3)GlcNAc(b1-3)Gal(b1-4)[Fuc(a1-3)]GlcNAc(b1-6)[Gal(b1-3)GlcNAc(b1-3)]Gal(b1-4)Glc
In short: as §1

[14] = target: Gal(b1-3)GlcNAc(b1-3)GalNAc
In short: as §1

[15] = target: Gal(b1-3)GlcNAc(b1-6)Gal(b1-4)GlcNAc
In short: as §1

[16] = target: Gal(b1-3)GlcNAc(b1-6)GalNAc
In short: as §1

[17] = target: Gal(b1-3)GlcNAc(b1-6)[Gal(b1-3)]GalNAc
In short: as §1

[18] = target: Gal(b1-3)GlcNAc6S
In short: as §1

[19] = target: Gal(b1-3)[Fuc(a1-4)]GlcNAc
In short: as §1

[20] = target: Gal(b1-3)[Fuc(a1-4)]GlcNAc(b1-2)Man
In short: as §1

[21] = target: Gal(b1-3)[Fuc(a1-4)]GlcNAc(b1-2)Man(a1-3)[Gal(b1-3)[Fuc(a1-4)]GlcNAc(b1-2)Man(a1-6)]Man(b1-4)GlcNAc(b1-4)[Fuc(a1-6)]GlcNAc
In short: as §1

[22] = target: Gal(b1-3)[Fuc(a1-4)]GlcNAc(b1-3)Gal(b1-3)[Fuc(a1-4)]GlcNAc
In short: as §1

[23] = target: Gal(b1-3)[Fuc(a1-4)]GlcNAc(b1-3)Gal(b1-4)[Fuc(a1-3)]GlcNAc
In short: as §1

[24] = target: Gal(b1-3)[Fuc(a1-4)]GlcNAc(b1-6)GalNAc
In short: as §1

[25] = target: Gal(b1-3)[GlcNAc(b1-6)]GalNAc
In short: as §1

[26] = target: Gal(b1-3)[Neu5Ac(a2-6)]GalNAc
In short: as §1

[27] = target: Gal(b1-3)[Neu5Ac(a2-6)]GlcNAc(b1-4)Gal(b1-4)Glc
In short: as §1

[28] = target: Gal(b1-3)[Neu5Ac(b2-6)]GalNAc
In short: as §1

[29] = target: Gal(b1-4)Gal
In short: as §1

[30] = target: Gal(b1-4)GalNAc(a1-3)[Fuc(a1-2)]Gal(b1-4)GlcNAc
In short: as §1

B1: a L Fucosidase (Streptosporangium roseum), D2B1P1_STRRD (protein)
chain: MRRKLLLVPAVGLLVIGSIFATQPVASADTPPVYEPTVESLNSHPVPQWFNDDKFGIFIHWGAYSVPAWGPRGSYAEWYGNYMNAGGSATNAHHKATYGQDFNYDAFLQQWKAEKFDPADWVKLFKDAGAKYFVLTSKHHEGMALWDSKSSGRDSVDLGPGRDLAKELFDAARKDEAKLKAGFYYSLYEWYNPAYTGRPATNPYTGAEIPYTGAPGGGDYVKDYMLPQMRELIDGYDPDIIWCDGQWEKPASYWNTAGVIADYYNKALNSGKEVAVANRCKIQSGNLDSPELDFQTPEYTVKPDIDPVKWESSRGIAHSYGYNQNEPEEDHLTSDQLVDSLVDIVSKNGNLLLDIGPKADGTIPEIQRQRLLDIGAWLKANGEAIYGTTYWNRAEEKGGPDDVRYTAKDATLYATALKWPGEQLTLGADLPVDHSTRITMLGSGARLSWSRDEQGRVVVNTPQEAGKHAYVFKIETPGVRSLLRTSSSLAKEIAPGRTISGELTVTNPGKRHTPATKLSLTVPQGWTATLGAPRVRPLGPGESVKVPISVSAPEGVAPAPYTLGLYQRTGRMGTTTALPLTVNRPNLSLGKPATQKSTGYDAPASRAVDGNTGGDWSAGSTTHTAEPEKQAWWQVDLGASARLDSVDVWNRLDCCADRLKDFWVMASDQPFTTDDLDQARTAPGVTAVHVGEQAGSPSKVKLPEGTRGRYVRIQLASPSNPLSLAEVQVRGSMARPNLSLGKPATQKSTGYDAPASRAVDGNTGGDWSAGSTTHTAEPEKQAWWQVDLGASARLDSVDVWNRLDCCADRLKDFWVMASDQPFTTDDLDQARTAPGVTAVHVGEQAGSPSKVKLPEGTRGRYVRIQLASPSNPLSLAEVQVRLEHHHHHHS
- glycan array binding signal (z-score) [1]: -0.357
- glycan array binding signal (z-score) [2]: -0.264
- glycan array binding signal (z-score) [3]: 1.88
- glycan array binding signal (z-score) [4]: -0.053
- glycan array binding signal (z-score) [5]: -0.373
- glycan array binding signal (z-score) [6]: -0.317
- glycan array binding signal (z-score) [7]: -0.177
- glycan array binding signal (z-score) [8]: -0.381
- glycan array binding signal (z-score) [9]: -0.343
- glycan array binding signal (z-score) [10]: -0.126
- glycan array binding signal (z-score) [11]: -0.27
- glycan array binding signal (z-score) [12]: 0.228
- glycan array binding signal (z-score) [13]: -0.561
- glycan array binding signal (z-score) [14]: -0.161
- glycan array binding signal (z-score) [15]: -0.601
- glycan array binding signal (z-score) [16]: -0.197
- glycan array binding signal (z-score) [17]: -0.234
- glycan array binding signal (z-score) [18]: -0.504
- glycan array binding signal (z-score) [19]: -0.167
- glycan array binding signal (z-score) [20]: 0.436
- glycan array binding signal (z-score) [21]: 0.118
- glycan array binding signal (z-score) [22]: 0.302
- glycan array binding signal (z-score) [23]: -0.103
- glycan array binding signal (z-score) [24]: -0.215
- glycan array binding signal (z-score) [25]: -0.548
- glycan array binding signal (z-score) [26]: -0.356
- glycan array binding signal (z-score) [27]: -0.397
- glycan array binding signal (z-score) [28]: -0.23
- glycan array binding signal (z-score) [29]: -0.166
- glycan array binding signal (z-score) [30]: -0.33
